Test results as given in patent US9803019B2, “Carrier immunoglobulins and uses thereof” (Amgen Inc., priority 2010, dated 2017).

T1: IL-17R (Homo sapiens, UniProt Q96F46)
T1 construct: endogenous in cells; host or cells: human foreskin fibroblasts (HFF)
T1 sequence (Q96F46 33-866): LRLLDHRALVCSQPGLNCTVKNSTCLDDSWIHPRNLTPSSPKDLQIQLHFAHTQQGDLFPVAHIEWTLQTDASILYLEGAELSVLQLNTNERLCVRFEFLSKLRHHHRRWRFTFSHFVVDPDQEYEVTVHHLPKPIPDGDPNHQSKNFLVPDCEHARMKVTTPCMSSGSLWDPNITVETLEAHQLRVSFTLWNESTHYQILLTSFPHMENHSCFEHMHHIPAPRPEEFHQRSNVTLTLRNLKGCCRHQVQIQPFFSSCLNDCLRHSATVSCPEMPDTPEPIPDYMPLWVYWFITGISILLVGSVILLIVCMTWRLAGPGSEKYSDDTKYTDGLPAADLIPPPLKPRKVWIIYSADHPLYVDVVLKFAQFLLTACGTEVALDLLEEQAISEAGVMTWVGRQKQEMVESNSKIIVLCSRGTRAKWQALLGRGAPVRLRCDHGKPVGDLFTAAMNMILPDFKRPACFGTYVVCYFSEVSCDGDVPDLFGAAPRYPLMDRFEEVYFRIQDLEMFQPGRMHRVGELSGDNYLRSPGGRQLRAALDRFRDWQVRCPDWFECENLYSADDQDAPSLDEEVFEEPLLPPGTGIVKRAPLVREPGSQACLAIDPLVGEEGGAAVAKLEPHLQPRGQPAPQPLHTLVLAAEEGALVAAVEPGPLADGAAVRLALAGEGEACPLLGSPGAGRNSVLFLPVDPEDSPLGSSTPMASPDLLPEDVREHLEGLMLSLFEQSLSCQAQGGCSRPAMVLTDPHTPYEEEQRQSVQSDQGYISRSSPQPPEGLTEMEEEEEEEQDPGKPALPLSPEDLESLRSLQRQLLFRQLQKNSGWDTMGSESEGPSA


Legend:
[1] = molecular target: T1, IL-17R; experiment: Cell based activity assay: IL-17-induced GRO-α release from human foreskin fibroblasts (sandwich ELISA); conditions: HFF, 5 ng/ml IL-17; 0.1, 1 and 10 μM antibody (FIG. 3)
Method: The conditioned cell medium was then assessed for GRO-α levels using a GRO-α sandwich ELISA.
Interaction of IL-17 with the IL-17R on cells induces the production of various factors, including growth-related oncogene alpha (GRO-α), from these cells. A cell-based characterization assay was developed to measure GRO-α released using sandwich ELISA. In this ELISA, a GRO-α capture antibody is utilized to bind GRO-α, and then a biotinylated GRO-α detection antibody is used to detect the captured protein. Streptavidin conjugated to horseradish peroxidise (HRP) is then added to detect the amount of biotinylated GRO-α detection antibody bound. The amount of HRP bound is measured by evaluation of absorbance at 450 nm. An increase in absorbance at 450 nm is indicative of an increase in the amount of GRO-α produced. In this assay, human foreskin fibroblasts (HFF) are incubated with 5 ng/ml IL-17 and 0.1 μM, 1 μM and 10 μM of antibody samples. The conditioned cell medium is then harvested and processed for assessment of GRO-α levels using a GRO-α sandwich ELISA.

[2] = Cynomolgus PK, sequential SC doses (Example 10); assay type: in vivo, cynomolgus monkeys
Method: The pharmacokinetic profiles of the 16435 and 4341 antibodies were also determined in cynomolgus monkeys (n=2 per group) by injecting of two subsequent subcutaneous doses of 1 mg/kg at day 0 and 5 mg/kg at day 57. Serum samples were collected at pre-dose, 0.5, 2, 4, 8, 12, 24, 48, 96, 168, 336, 504, 672, 840, 1008, 1176, 1344 (prior to second dose) hours post 1st dose at 1 mg/kg and 0.5, 2, 4, 8, 12, 24, 48, 96, 168, 336, 360, 384, 432, 504, 672, 840, 1008, 1176, 1344 following post 2nd dose at 5 mg/kg. The samples were assayed for the 16435 and 4341 antibody levels by using an anti-IgG sandwich ELISA as described above. Time concentration data were analyzed using non-compartmental methods with WinNonLin®. […] If there had been a significant immune response causing abnormal antibody clearance, it would have been expected after the second dose, due to immune system priming by the first dose.

[3] = Thermoresistance by DSC (MicroCal VP-DSC); assay type: physicochemical; conditions: 0.5 mg/ml in 10 mM sodium acetate, 9% sucrose, pH 5.0; 20° C. to 95° C. at 1° C. per minute
Method: The protein concentration was 0.5 mg/ml in 10 mM sodium acetate, 9% sucrose, pH 5.0.
Antibodies were also analyzed for thermoresistance by DSC using a MicroCal VP-DSC where the samples were heated from 20° C. to 95° C. at a rate of 1° C. per minute. DSC directly measures heat changes that occur in biomolecules during controlled increase or decrease in temperature, making it possible to study materials in their native state.
DSC measures the enthalpy (ΔH) of unfolding due to heat denaturation. A biomolecule in solution is in equilibrium between the native (folded) conformation and its denatured (unfolded) state. […] DSC is also used to determine the change in heat capacity (ΔCp) of denaturation (see, FIG. 11). The proteins were incubated at 0.5 mg/ml in 10 mM sodium acetate, 9% sucrose, pH 5.0 (FIG. 11).
The antibodies were analyzed for thermoresistance by DSC using a MicroCal VP-DSC where the samples were heated from 20° C. to 95° C. at a rate of 1° C. per minute. The proteins were at 0.5 mg/ml in 10 mM sodium acetate, 9% sucrose, pH 5.0 (FIG. 28).

Molecule	blocking activity on IL-17-induced GRO-α production [1]	change in clearance mediated by an immune response after multiple dosing ([2]; 1 mg/kg day 0 then 5 mg/kg day 57 SC (FIG. 44))	half life ([2]; SC)	AUC0-inf ([2]; SC 5 mg/kg)	AUC0-t ([2]; SC 5 mg/kg)	CL/F ([2]; SC 5 mg/kg) [mL/h/kg]	Cmax ([2]; SC 5 mg/kg)	MRT ([2]; SC 5 mg/kg) [days]	Tmax ([2]; SC 5 mg/kg) [h]	T1/2 ([2]; SC 5 mg/kg (second dose, day 57, after 1 mg/kg at day 0)) [days]	DSC melting profile [3]
16435 (antibody, 16435 (LC: P66L, D90E)) heavy: MEWTWRVLFLVAAATGAHSQVQLVQSGAEVKKPGASVKVSCKASGYTFTRYGISWVRQAPGQGLEWMGWISTYSGNTNYAQKLQGRVTMTTDTSTSTAYMELRSLRSDDTAVYYCARAQLYFDYWGQGTLVTVSSASTKGPSVFPLAPCSRSTSESTAALGCLVKDYFPEPVTVSWNSGALTSGVHTFPAVLQSSGLYSLSSVVTVPSSNFGTQTYTCNVDHKPSNTKVDKTVERKCCVECPPCPAPPVAGPSVFLFPPKPKDTLMISRTPEVTCVVVDVSHEDPEVQFNWYVDGVEVHNAKTKPREEQFNSTFRVVSVLTVVHQDWLNGKEYKCKVSNKGLPAPIEKTISKTKGQPREPQVYTLPPSREEMTKNQVSLTCLVKGFYPSDIAVEWESNGQPENNYKTTPPMLDSDGSFFLYSKLTVDKSRWQQGNVFSCSVMHEALHNHYTQKSLSLSPGK light: EIVMTQSPATLSVSPGERATLSCRASQSVSSNLAWFQQKPGQAPRLLIYDASTRATGVPARFSGSGSGTEFTLTISSLQSEDFAVYYCQQYDNWPLTFGGGTKVEIKRTVAAPSVFIFPPSDEQLKSGTASVVCLLNNFYPREAKVQWKVDNALQSGNSQESVTEQDSKDSTYSLSSTLTLSKADYEKHKVYACEVTHQGLSSPVTKSFNRGEC	no significant blocking activity	no indication of a significant change in the clearance mediated by an immune response	about 12 days	31,230,285 ng · h/mL	29,924,604 ng · h/mL	0.161	58,682 ng/mL	18.8	96	11.9	most desirable melting profile, with a higher temperature for the secondary transition
16444 (antibody, 16444 (LC: P66L, D90E, W114A)) heavy: MEWTWRVLFLVAAATGAHSQVQLVQSGAEVKKPGASVKVSCKASGYTFTRYGISWVRQAPGQGLEWMGWISTYSGNTNYAQKLQGRVTMTTDTSTSTAYMELRSLRSDDTAVYYCARAQQYFDYWGQGTLVTVSSASTKGPSVFPLAPCSRSTSESTAALGCLVKDYFPEPVTVSWNSGALTSGVHTFPAVLQSSGLYSLSSVVTVPSSNFGTQTYTCNVDHKPSNTKVDKTVERKCCVECPPCPAPPVAGPSVFLFPPKPKDTLMISRTPEVTCVVVDVSHEDPEVQFNWYVDGVEVHNAKTKPREEQFNSTFRVVSVLTVVHQDWLNGKEYKCKVSNKGLPAPIEKTISKTKGQPREPQVYTLPPSREEMTKNQVSLTCLVKGFYPSDIAVEWESNGQPENNYKTTPPMLDSDGSFFLYSKLTVDKSRWQQGNVFSCSVMHEALHNHYTQKSLSLSPGK light: EIVMTQSPATLSVSPGERATLSCRASQSVSSNLAWFQQKPGQAPRLLIYDASTRATGVPARFSGSGSGTEFTLTISSLQSEDFAVYYCQQYDNAPLTFGGGTKVEIKRTVAAPSVFIFPPSDEQLKSGTASVVCLLNNFYPREAKVQWKVDNALQSGNSQESVTEQDSKDSTYSLSSTLTLSKADYEKHKVYACEVTHQGLSSPVTKSFNRGEC	no significant blocking activity	–	–	–	–	–	–	–	–	–	–
